In paper PMC12136788 one finds binding signal data, which are given here for 14 molecules.

This is one part of the list.

B1: 118898749_118898869_788_3pUTR_ENSMUSG00000078584_ENSMUST00000141112|mouse|control|control (ssRNA)
RNA: GGGAGUUCUACAGUCCGACGAUCCCCACAGUUCUGUGACUCCUUACCAUCAAACUGAGAGCAAAACCAGCAGCUACAUCAUCAAGAUCAUCGUCCAAGUAGUUCAUAAUUCACCCAAAAACCCAUAGUCCCCCCUCACCCCCCCAACAGAGGAUUGAGCAUCA
B2: chrX:98878078:98878079:+_ENSMUSG00000034160_ENSMUST00000044475|mus_hu|FALSE|FALSE (ssRNA)
RNA: GGGAGUUCUACAGUCCGACGAUCACAUUUUAGCUUAAAACCUUAUCUCAAGAGAAUCAUAUACACUUCACAUGAAUAAAAAUACCUGAAACCAAACAUUUUUAAAAGCUCCAGUACCCAAAAUAUAAAGAAAAAAAAAUCCAGCAACAGAGGAUUGAGCAUCA
B3: chr7:151048522:151048523:+_ENSG00000013374_ENST00000566856|hu_mus|FALSE|FALSE (ssRNA)
RNA: GGGAGUUCUACAGUCCGACGAUCCUGUUUCUUAUUUAUUACGAUCUUGAUGUAAUUUUCUUGAAAUCCGAAAGUUUCAGCUAUUUGACACCUCAGGUCUCUACCAGUGACAUGCAAGCGGGUCUCCAACAAGCUUUUCUUAUCCAACAGAGGAUUGAGCAUCA
B4: chr3:176767854:176767855:-_ENSG00000177565_ENST00000430069|hu_hu|hu_hu_hu_mus_False|48_48 (ssRNA)
RNA: GGGAGUUCUACAGUCCGACGAUCGACAUCCUUGUUACUGGGCACGUCCUGCCCUCCUUCCCGUAUGCAGUGUCUAAGCACGAGCUGUGUAGAGCCACUCGUGCUGUUCUCACUGAGGUUCCAGAUUCUUGCCGUGGAGUCUCCCAACAGAGGAUUGAGCAUCA
B5: chr5:143665338:143665339:-_ENSMUSG00000029580_ENSMUST00000100497|mus_mus|FALSE|FALSE (ssRNA)
RNA: GGGAGUUCUACAGUCCGACGAUCUUUUUAAAUCCUGAGUCAAAAGCGCCAAAACAAAACAAAAAAACUUAAAAAAAAAAAAAAAAAAAAAAAAAAAAACUUUAAAAAAAAUUUAAAAAAACAAAGCCAUGCCAAUGUUGUCUCCAACAGAGGAUUGAGCAUCA
B6: chr2:104499440:104499441:+_ENSMUSG00000027176_ENSMUST00000028599|mus_hu|FALSE|FALSE (ssRNA)
RNA: GGGAGUUCUACAGUCCGACGAUCUUCUCCAGACUUCUCAGGAGGAAGGCUUCCAGAUGUUAAAACUCGUUCAAACAAAACUCGGGUAUUAUUGUCCUCAUUGAGGUGAGAAAGAUAGUCAAUAUAGGCCAGGACAUACUCUGGCAACAGAGGAUUGAGCAUCA
B7: chr7:149068622:149068623:-_ENSMUSG00000025139_ENSMUST00000001950|mus_hu|mus_mus_mus_hu_False|1_88 (ssRNA)
RNA: GGGAGUUCUACAGUCCGACGAUCGUGAGGCCUCUGAGUGUGGCUUGUGCUCUGCAGUGGGUUAGAGUUGUUAAUAUCACGGAACAUACCAUCUAGAACGUUCCAGUCCCGCCUGACACCUUCAUUCCCAAUGGAGAAUCUGCUCAACAGAGGAUUGAGCAUCA
B8: chr18:35833404:35833405:-_ENSMUSG00000024350_ENSMUST00000025208|mus_mus|motif|central (ssRNA)
RNA: GGGAGUUCUACAGUCCGACGAUCCCUAGACAUAUGACCUAGGCCGACCACUCAUCCUCUCUGGCCAAUUCAUAAAAGGGCGGACAUACCGGUUUCACAAACUGUUAUGAGGAAUAAGUGAAAAAACAAAAUAAAACAGAACACCAACAGAGGAUUGAGCAUCA
B9: 80942273_80942393_173_CDS_ENSG00000147586_ENST00000276585|human|control|control (ssRNA)
RNA: GGGAGUUCUACAGUCCGACGAUCCUGUAGGGGCUCCACCUUCUGUAGAAGCUCCGAGUGCCGCUCCAACGCGCUCGCGAAACCGCCUGCGCGCGUCUUAGGCUCCUUGGCAUUGGAACUACCACUUUCGGAUCCACUCUCAGUCAACAGAGGAUUGAGCAUCA
B10: chr1:60041781:60041782:+_ENSMUSG00000041040_ENSMUST00000036540|mus_hu|mus_mus_mus_hu_False|48_78 (ssRNA)
RNA: GGGAGUUCUACAGUCCGACGAUCAAGUUUACAAUAGUAAAGUAAAUGCAGUAGUGGAAUGGCAAGUUUUAUUUUCCUUCACAAAAGAAAACCUCAGUAACCCAGUCCUAGUCUUGGACAUAGUGAAAGCUAUAAAUUCUGACUCAACAGAGGAUUGAGCAUCA
B11: chr3:88516089:88516090:+_ENSMUSG00000028060_ENSMUST00000029696|mus_hu|FALSE|FALSE (ssRNA)
RNA: GGGAGUUCUACAGUCCGACGAUCAUUGACCAAACAGUAGUAAAAUACAAAUAAAACUUUCUUUAUGUCAGAACUGGGGCUAUUCACCUGGAAAAGGCUGACCAGGUCAAAUGUGUAUGGGAACGACCCUGUUAGGAUGCUUUGCAACAGAGGAUUGAGCAUCA
B12: 53846149_53848618_101_5pUTR_ENSG00000197111_ENST00000546463|human|control|control (ssRNA)
RNA: GGGAGUUCUACAGUCCGACGAUCCAUUUAAUCCACCUUCAAUCACACCGGUGUCCAUGUCGAGCAGUGUUCUGGGGAGCUGGACUUUGAGUGGUCAAGUCUUUGGUCACUGGUUGGGGGUGAAAGCCAAAAACUGCAGGCGCGCAACAGAGGAUUGAGCAUCA
B13: 115421974_115422094_2132_CDS_ENSG00000165185_ENST00000337530|human|control|control (ssRNA)
RNA: GGGAGUUCUACAGUCCGACGAUCGAGGCAGUAAGGGCACUGUUUGUGUCCCCGGGAAUGCUCAUGGUAGAUCUUCCCGUGACACACUCUGGUGGAGCCGCUCCGACUCUCCCGCUUGACGCUGUCCGUCCGGGCAAAGUAGGGCAACAGAGGAUUGAGCAUCA
B14: 10583388_10583684_1091_CDS_ENSG00000115758_ENST00000405333|human|control|control (ssRNA)
RNA: GGGAGUUCUACAGUCCGACGAUCAGGAAAGCCACCGCCAAUAUCAAGCAGAUACAUGCUGAAACCAACCUCAGCCCCCAUGUCAAAAACACAGCGGGCAUCAGAGAUUGCCUGCACGAAGGUCUCAGGAUCGGUACAGCCGCUCAACAGAGGAUUGAGCAUCA

This experiment addresses T1, UNK ZnF1-3 (human, UniProt Q9C0B0 31-174).
T1 sequence: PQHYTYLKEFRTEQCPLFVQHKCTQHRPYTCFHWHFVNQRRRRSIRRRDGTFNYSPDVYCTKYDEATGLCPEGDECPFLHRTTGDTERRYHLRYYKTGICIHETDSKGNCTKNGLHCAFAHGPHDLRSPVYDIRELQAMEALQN
Briefly: nsRBNS (natural sequence RNA bind-n-seq); RBNS binding buffer (assumed for nsRBNS): 25 mM Tris pH 7.5, 150 mM KCl, 3 mM MgCl2, 0.01% Triton X-100, 500 ug/ml BSA, 20 U/ml SUPERase-In, 4 C; UNK is unkempt and MSI1 is Musashi-1; names of the RNAs are library labels; protein concentration not given here; high values mean tight binding.
As for B1, the binding signal is 2.26 enrichment R.

B2 gave a binding signal of 2.84 enrichment R.

Consider B3, for which the binding signal was found to be 0.658 enrichment R.

The molecule B4 gave a binding signal of 0.436 enrichment R.

Molecule B5 displayed a binding signal of 2.58 enrichment R.

The molecule B6 showed a binding signal of 1.3 enrichment R.

B7 had a binding signal of 0.748 enrichment R.

Molecule B8 yielded a binding signal of 1 enrichment R.

The molecule B9 gave a binding signal of 0.289 enrichment R.

On to B10, for which the binding signal worked out at 0.706 enrichment R.

Regarding B11, the binding signal was found to be 1.31 enrichment R.

As to B12, the binding signal came out at 1.17 enrichment R.

The molecule B13 gave a binding signal of 0.174 enrichment R.

The molecule B14 came in with a binding signal of 1.22 enrichment R.
